# Laboratory results published in the BET-seq Pho4 binding data (Le et al. 2018).
# Some of the results follow. These are noisy estimates, calculated here from bound and input reads.
# Biological target: T1, Pho4 (S. cerevisiae) (UniProt P07270)
# T1 sequence: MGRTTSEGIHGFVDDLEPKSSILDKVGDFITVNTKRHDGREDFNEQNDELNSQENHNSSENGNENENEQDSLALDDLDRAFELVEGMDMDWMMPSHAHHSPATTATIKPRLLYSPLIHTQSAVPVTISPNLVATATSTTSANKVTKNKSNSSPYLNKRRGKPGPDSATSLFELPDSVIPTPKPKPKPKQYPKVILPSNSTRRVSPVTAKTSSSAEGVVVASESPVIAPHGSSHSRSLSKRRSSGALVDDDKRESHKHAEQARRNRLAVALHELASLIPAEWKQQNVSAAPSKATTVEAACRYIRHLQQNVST
# Test: relative binding free energy (BET-seq); higher = weaker binding
# Conditions: reference: library average
row,Sequence,relative binding free energy [kcal/mol]
1,CATGTCACGTGTTGTT,0.11
2,GTAATCACGTGCGGTT,0.17
3,TCGTTCACGTGCGTAT,0.3
4,GTGGACACGTGGCGAT,0.13
5,CTGGGCACGTGAAAGT,0.12
6,TCATTCACGTGTAGTG,0.27
7,GTTCACACGTGGGGCG,0.15
8,CGGTACACGTGAGCGG,0.32
9,ATGAGCACGTGACGTG,0.08
10,TTTTACACGTGTGTCG,0.21
11,TGGCGCACGTGGTATT,-0.28
12,GGAATCACGTGCGTTG,0.02
13,TTTGACACGTGGGCGG,-0.02
14,TTTATCACGTGCCTTT,0.2
15,TGGCTCACGTGTGGTA,0.25
16,AGTAACACGTGTGTGG,0.01
17,GGCGTCACGTGTGATG,0.24
18,TTTGACACGTGGGATA,-0.01
19,ATGGGCACGTGAGCAG,-0.02
20,TGGGGCACGTGCCAGG,-0.25
21,CGTGACACGTGGTTGA,-0.08
22,ATAGACACGTGAGGTG,0.19
23,GAATACACGTGGGGCG,-0.1

row,Sequence,relative binding free energy [kcal/mol]
1,ATGTACACGTGAGCTT,0.35
2,GGTGCCACGTGTAGGT,0.03
3,TGGGGCACGTGTACGT,-0.01
4,GGTTGCACGTGGTCTG,-0.05
5,GATGTCACGTGGGAAT,-0.03
6,CTTGACACGTGAGGGA,0.36
7,TTTTTCACGTGGCTCT,0.19
8,TAAGACACGTGCGGGT,-0.07
9,TAAACCACGTGGTGTT,-0.12
10,TTCAGCACGTGACGGG,0.09
11,GCGAGCACGTGCGGGA,0.03
12,ACTGGCACGTGTGTTA,-0.07
13,CAGGCCACGTGTGGGT,-0.07
14,TTTTACACGTGTATAG,0.04
15,GTAATCACGTGCTTGG,0.21
16,ATCGGCACGTGCGGGT,-0.2
17,TCTTACACGTGAGGTT,0.19
18,GTTTGCACGTGATCAG,0.11
19,ATGAGCACGTGGCCGG,-0.21
20,TTTAGCACGTGTCGGA,-0.02
21,ATAATCACGTGGGTGA,-0.07
22,TGTAACACGTGGCTTT,-0.06
23,AGTGGCACGTGATGGA,0.07

row,Sequence,relative binding free energy [kcal/mol]
1,TAATCCACGTGGTTTA,0.17
2,GGCAGCACGTGAGGTT,0.28
3,AGATGCACGTGAGGGA,0.12
4,AATTGCACGTGGGGGG,-0.12
5,GATTGCACGTGTTATG,0.06
6,GGGCTCACGTGGGGAC,0.11
7,TTGGGCACGTGATTAA,0.08
8,AGTCTCACGTGTTTAA,0.17
9,TTCTACACGTGAATAG,0.53
10,GGGGTCACGTGCGTGC,-0.01
11,TATGTCACGTGCTTAG,-0.02
12,GGTCTCACGTGAAGGA,0.34
13,AGTGACACGTGCTGGG,-0.16
14,GGAAGCACGTGGGGCG,-0.16
15,AGGATCACGTGAAGGT,0.21
16,GTGGTCACGTGGGTCC,0.12
17,TGAATCACGTGTGGAA,0.24
18,TTTGACACGTGTGTTT,0.18
19,AATAGCACGTGTGGAA,-0.05
20,TATTTCACGTGAACTT,0.23
21,AGAGGCACGTGTTAGA,-0.15
22,TATGTCACGTGAGGAA,0.24
23,AATGTCACGTGTAAGG,0.23

row,Sequence,relative binding free energy [kcal/mol]
1,AGTCACACGTGCGGGT,0.03
2,AGTTGCACGTGTCAAG,0
3,AGTTTCACGTGAGCGT,0.3
4,TGGCGCACGTGTTTGA,-0.15
5,GGTTGCACGTGTCGCA,0.08
6,ATGAGCACGTGATTAG,0
7,TTTCTCACGTGGACTG,0.31
8,GGGTACACGTGAACGT,0.24
9,TGGGTCACGTGCAATA,0.1
10,GTGTACACGTGGGGAC,-0.12
11,CAGGACACGTGGATGT,0.02
12,ATTGACACGTGTTGCT,-0.04
13,AAGTTCACGTGGGGGG,0.12
14,GTGTGCACGTGCTTAG,0
15,AGCGTCACGTGGGAAG,0.08
16,ACTTGCACGTGGCTGG,0.05
17,TTAACCACGTGATTGG,0.14
18,GTCTACACGTGTTAGT,0.25
19,AGATGCACGTGGAATG,-0.15
20,CGTGTCACGTGCGGGC,0
21,TGCGGCACGTGCTGAG,-0.18
22,TGGGTCACGTGATATG,0.09
23,ATAGTCACGTGGGACT,0

row,Sequence,relative binding free energy [kcal/mol]
1,GGTTACACGTGCTGAG,0.03
2,GGTGCCACGTGAATGT,0.21
3,CGTGGCACGTGGAGAT,-0.04
4,TACGTCACGTGGCGTT,-0.05
5,ATGCTCACGTGTATTG,0.13
6,GAAGTCACGTGCTGTG,0.07
7,GGTGACACGTGTAGCT,0.16
8,TTTAACACGTGCTGTG,-0.12
9,GTATTCACGTGTGGGC,0.34
10,GGTTCCACGTGAGCGG,0.24
11,GCTTACACGTGGGTGA,-0.01
12,TAAGTCACGTGTTTAC,0.13
13,TGTAACACGTGGGTTG,-0.06
14,GTCTTCACGTGAAGGG,0.46
15,TAGTTCACGTGTTGGA,0.31
16,CGATACACGTGGTAGG,0.01
17,TGGGTCACGTGAATTC,0.36
18,TCTGTCACGTGGGAGA,0.18
19,ATTTACACGTGTTAGT,0.24
20,TGGCGCACGTGGGATG,-0.31
21,TTTATCACGTGTGGTA,0.12
22,AGGATCACGTGGGTGA,0.14
23,TCTAGCACGTGTTGTG,-0.22
